Measured values: the supplement of paper PMC10600219
Structures can show the parent of a compound that is named as a salt. Over roughly 2,800 compounds, “cell viability relative to vehicle” has its median near 0.98; the lowest 2% begin near 0.45. The list shows a part of the results.

Tested on: NCI-H2228 alectinib-DTP
Test: cell viability relative to vehicle (fraction of vehicle); NCI-H2228 is an ALK-positive lung cancer line and DTP means drug-tolerant persister; higher = less growth inhibition
Conditions: 100 nM; treatment time 6 days
In short: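 Each value is viability relative to vehicle-treated cells, measured as ATP with the CellTiter-Glo 3D Cell Viability Assay. Parental NCI-H2228 cells and drug-tolerant persisters (1000 nM targeted drug, 13 days) in 384-well plates received the 3114-agent TargetMol anti-cancer compound library at 100 nM, or DMSO, and were read 6 days later.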

| SMILES | cell viability |
| --- | --- |
| Oc1cc(O)cc(/C=C/c2ccc(O)c(O)c2)c1 [Piceatannol] | 0.986 |
| CCN1CCN(c2ccc(Nc3cc(N(C)C(=O)Nc4c(Cl)c(OC)cc(OC)c4Cl)ncn3)cc2)CC1 [Infigratinib] | 0.781 |
| Nc1nc(=O)[nH]cc1F [Fluorocytosine] | 0.918 |
| CC[C@@]1(O)C(=O)OCc2c1cc1n(c2=O)Cc2cc3c(CN(C)C)c(O)ccc3nc2-1 [Topotecan hydrochloride] | 0.245 |
| Cc1cc(Nc2cc(CN3CCOCC3)c3nc(C)c(Cc4ccc(Cl)cc4F)n3n2)n[nH]1 [Gandotinib] | 0.982 |
| CCOC(=O)N[C@@H]1CC[C@@H]2[C@@H](C1)C[C@H]1C(=O)O[C@H](C)[C@H]1[C@H]2/C=C/c1ccc(-c2cccc(F)c2)cn1 [Vorapaxar] | 0.98 |
| CCOC(=O)N[C@@H]1CC[C@@H]2[C@@H](C1)C[C@H]1C(=O)O[C@H](C)[C@H]1[C@H]2/C=C/c1ccc(-c2cccc(F)c2)cn1 [Vorapaxar sulfate] | 1.03 |
| Nc1nnc(-c2cccc(Cl)c2Cl)c(N)n1 [Lamotrigine] | 1.06 |
| NC(=O)c1cnc(-c2ccc(C3(N)CCC3)cc2)c(-c2ccccc2)c1 | 0.932 |
| CC(=O)O[C@]1(C(C)=O)CC[C@H]2[C@@H]3C=C(C)C4=CC(=O)CC[C@]4(C)[C@H]3CC[C@@]21C [Megestrol acetate] | 0.881 |
| CN(C)C(=O)c1cc2cnc(Nc3ccc(N4CCNCC4)cn3)nc2n1C1CCCC1 [Ribociclib] | 0.94 |
| CN1CCN(c2ccc(Nc3cc(-c4cccc(-n5ccc6cc(C7CC7)cc(F)c6c5=O)c4CO)cn(C)c3=O)nc2)CC1 | 1.01 |
| CC(C)Cc1ccc([C@@H](C)C(=O)NS(C)(=O)=O)cc1 [Repertaxin] | 1.1 |
| COc1ccc2c(c1)c(CC(=O)OCC(=O)O)c(C)n2C(=O)c1ccc(Cl)cc1 [Acemetacin] | 0.994 |
| COc1cc(C2Oc3ccc(C4Oc5cc(O)cc(O)c5C(=O)C4O)cc3OC2CO)ccc1O (stereo not drawn) [Isosilybin] | 1.01 |
| CC(=O)NC[C@H]1CN(c2ccc(N3CCOCC3)c(F)c2)C(=O)O1 [Linezolid] | 1.11 |
| Cc1nccn1CC1CCc2c(c3ccccc3n2C)C1=O (stereo not drawn) [Ondansetron hydrochloride] | 0.846 |
| Cn1sc(=O)n(Cc2ccccc2)c1=O | 0.987 |
| Nc1ncnc2c1ncn2[C@@H]1O[C@H](CO)C[C@H]1O [Cordycepin] | 0.963 |
| COc1ccc2cc3[n+](cc2c1OC)CCc1cc2c(cc1-3)OCO2 [Berberine] | 1.09 |
| CC[C@H](C)[C@@H]1NC(=O)[C@@H]2CCCN2C(=O)[C@@H]2CCCN2C(=O)[C@@H]2CCCN2C(=O)[C@H](CC(C)C)NC(=O)CNC(=O)CNC(=O)[C@H](Cc2ccccc2)NC1=O [Heterophyllin B] | 1.02 |
| Cc1cc([N+](=O)[O-])c(NS(=O)(=O)c2cccc(C(=O)O)c2)cc1-c1cccnc1 [Alofanib] | 0.978 |
| Cc1ccc(S(=O)(=O)/C=C/C#N)cc1 | 1.07 |
| COc1cc(-c2cc(-c3ccc(N4CCNCC4)cc3)cnc2C)cc(OC)c1OC | 1.15 |
| C[C@H](CCC(=O)NCCS(=O)(=O)O)[C@H]1CC[C@H]2[C@@H]3[C@H](O)C[C@@H]4C[C@H](O)CC[C@]4(C)[C@H]3C[C@H](O)[C@]12C [Taurocholic acid sodium salt hydrate] | 1.04 |

| SMILES | cell viability |
| --- | --- |
| Nc1ccccc1NC(=O)c1ccc(CNc2nccc(-c3cccnc3)n2)cc1 [Mocetinostat] | 0.667 |
| Cn1nc(-c2ccc(C(F)(F)F)cc2)nc2c(=O)n(C)c(=O)nc1-2 [Walrycin B] | 0.741 |
| CC(C)(C)NCC(O)COc1cccc2c1CC(O)C(O)C2 (stereo not drawn) [Nadolol] | 0.951 |
| CC1=C(C(=O)O)N2C(=O)[C@@H](NC(=O)[C@H](N)c3ccccc3)[C@H]2SC1 [Cephalexin] | 1.21 |
| CC[C@H](C)C(=O)O[C@H]1C[C@H](O)C=C2C=C[C@H](C)[C@H](CC[C@@H](O)C[C@@H](O)CC(=O)O)[C@H]21 [Pravastatin sodium] | 1.02 |
| Cc1cccn2c(=O)c(-c3nnn[nH]3)cnc12 [Pemirolast potassium] | 0.847 |
| CCOCCn1c(N2CCCN(C)CC2)nc2ccccc21 [Emedastine] | 1.02 |
| COc1cc(C(=O)OCCCCNC(=N)N)cc(OC)c1O [Leonurine hydrochloride] | 1.08 |
| C[C@H]1O[C@H](O[C@@H]2[C@@H](O)[C@H](OCCc3ccc(O)c(O)c3)O[C@H](CO[C@H]3OCC(O)(CO)[C@@H]3O)[C@H]2OC(=O)/C=C/c2ccc(O)c(O)c2)[C@@H](O)[C@@H](O)[C@@H]1O (stereo partly drawn) [Forsythoside B] | 0.906 |
| Cc1cc(Nc2ncc(Cl)c(Nc3ccccc3S(=O)(=O)C(C)C)n2)c(OC(C)C)cc1C1CCNCC1 | 0.896 |
| CCNC(=O)Nc1ccc(-c2nc(N3CCOC[C@@H]3C)c3c(n2)C(C)(C)S(=O)(=O)C3)cc1 | 0.508 |
| N[C@@H](CCNCc1ccc(Cl)cc1)C(=O)N1CCCCC1 | 1.18 |
| C[C@@H](Oc1cc(-c2cnn(C3CCNCC3)c2)cnc1N)c1c(Cl)ccc(F)c1Cl [Crizotinib] | 0.962 |
| Nc1ncc(-c2ccnc(Nc3ccncc3)n2)c(CC2CC2)n1 | 0.996 |
| CC(Cc1ccc(O)c(O)c1)C(C)Cc1ccc(O)c(O)c1 (stereo not drawn) [Nordihydroguaiaretic acid] | 1.08 |
| CC/C=C\CC1C(=O)CCC1CC(=O)OC (racemic) [(±)-Methyl Jasmonate] | 0.91 |
| Cc1c(CN2CCN(S(C)(=O)=O)CC2)sc2c(N3CCOCC3)nc(-c3cnc(N)nc3)nc12 | 0.514 |
| CC(C)(O)CNc1nc(Nc2ccnc(C(F)(F)F)c2)nc(-c2cccc(C(F)(F)F)n2)n1 [Enasidenib] | 0.96 |
| CNCC[C@@H](Oc1ccccc1C)c1ccccc1 [Atomoxetine hydrochloride] | 0.876 |
| CC(C)(C)c1cc(NC(=O)Nc2ccc(Oc3ccnc4[nH]c(=O)cnc34)cc2F)n(-c2ccccc2)n1 | 1.12 |
| C=CC(=O)Nc1cccc(Oc2nc(Nc3ccc(N4CCN(C)CC4)c(F)c3)nc3[nH]ccc23)c1 [Avitinib] | 0.747 |
| O=C(Nc1ccc2[nH]nc(-c3ccncc3)c2c1)[C@@H]1CCN(CC(=O)N2CCN(c3ccc(-c4ncccn4)cc3)CC2)C1 | 0.831 |
| C=C1CCC[C@]2(C)C[C@]3(O)OC(=O)C(C)=C3C[C@@H]12 [Atractylenolide III] | 0.995 |
| CCCCC1C(=O)N(c2ccccc2)N(c2ccccc2)C1=O [Phenylbutazone] | 0.919 |
| O=c1cc(N2CCOCC2)oc2c(-c3ccc4c(c3)OCCO4)csc12 | 0.999 |

| SMILES | cell viability |
| --- | --- |
| COc1cc2ncnc(Nc3ccc(F)c(Cl)c3)c2cc1NC(=O)/C=C/CN1CCCCC1 [Dacomitinib] | 0.767 |
| CC(=O)Oc1cc(C)c(OC(C)=O)c2ccccc12 [Menadiol Diacetate] | 1.11 |
| Cc1ccc(C(=O)N(CCCN)[C@@H](c2nc3cc(Cl)ccc3c(=O)n2Cc2ccccc2)C(C)C)cc1 [Ispinesib] | 0.777 |
| CC(=O)/N=c1/sc(S(N)(=O)=O)nn1C [Methazolamide] | 0.815 |
| CC1=CC(=O)c2ccccc2C1=O [Menadione] | 1.12 |
| COCCCOc1cc(C[C@@H](C[C@H](N)[C@@H](O)C[C@H](C(=O)NCC(C)(C)C(N)=O)C(C)C)C(C)C)ccc1OC [Aliskiren hemifumarate] | 0.972 |
| CC(C)(C)C1CCc2c(sc(NC(=O)c3ccco3)c2C(=O)O)C1 (stereo not drawn) | 1.09 |
| CCCc1nc2c(C)cc(-c3nc4ccccc4n3C)cc2n1Cc1ccc(-c2ccccc2C(=O)O)cc1 [Telmisartan] | 0.867 |
| CCCCCC=CC(=O)CCc1ccc(O)c(OC)c1 [6-Shogaol] | 1.07 |
| CCCC(=O)Nc1ccc(OCC(O)CNC(C)C)c(C(C)=O)c1 (stereo not drawn) [Acebutolol hydrochloride] | 1.09 |
| Cc1nn(C)c(COc2ccc(N3CCN(S(=O)(=O)N(C)C)CC3)cc2)c1-c1cccc2c(CCCOc3cccc4ccccc34)c(C(=O)O)n(CCN3CCOCC3)c12 | 0.959 |
| C=C[C@H]1[C@H](O[C@@H]2O[C@H](CO)[C@@H](O)[C@H](O)[C@H]2O)OC=C2C(=O)OCC[C@]21O [Swertiamarin] | 0.944 |
| C[C@@H]1O[C@@H](OC[C@H]2O[C@@H](Oc3c(-c4ccc(O)c(O)c4)oc4cc(O)cc(O)c4c3=O)[C@H](O)[C@@H](O)[C@@H]2O)[C@H](O)[C@H](O)[C@H]1O [Rutin] | 0.922 |
| NC(=O)Nc1sc(-c2ccc(F)cc2)cc1C(N)=O | 1.03 |
| CC1(C)C(=O)N(CCN2CCC(C(=O)c3ccc(F)cc3)CC2)c2ccccc21 | 0.827 |
| CCCOc1ccc(/C=C2\SC(=O)NC2=O)cc1 | 1.01 |
| N=C(N)c1ccc(N=NNc2ccc(C(=N)N)cc2)cc1 [Diminazene Aceturate] | 1.05 |
| C[C@H](CCC(=O)O)[C@H]1CC[C@H]2[C@@H]3C[C@H](O)[C@@H]4C[C@H](O)CC[C@]4(C)[C@H]3CC[C@]12C [Hyodeoxycholic acid] | 1.02 |
| O=C(NCc1ccc2c(c1)OCO2)c1c(Cl)cccc1Cl | 0.937 |
| Nc1ccccc1NC(=O)CCCCCCC(=O)Nc1ccccc1 | 0.956 |
| Cn1cc(C2=C(c3cn(CCCSC(=N)N)c4ccccc34)C(=O)NC2=O)c2ccccc21 [Ro 31-8220 Mesylate] | 0.865 |
| C[C@@H]1O[C@@H](O[C@H]2[C@H](Oc3cc(O)c4c(c3)O[C@H](c3ccc(O)cc3)CC4=O)O[C@H](CO)[C@@H](O)[C@@H]2O)[C@H](O)[C@H](O)[C@H]1O [Naringin] | 1.15 |
| COc1ccc(CCc2cc(OC)c(OC)c(OC)c2)cc1O [Erianin] | 0.697 |
